According to the supplement of paper PMC11417369:
± gives the standard deviation of the averaged measurements. The list shows a part of the results.

These sequences were tested on PfAP2-EXP AP2 domain (GST-tagged) (assay: gcPBM binding intensity (ln(normalized median fluorescence intensity)); higher = stronger DNA binding).
How it was run: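 DNA-binding domains from P. falciparum, fused to GST and produced in E. coli, were put on an Agilent 4 × 180k double-stranded probe array for 1 h in 1× PBS holding 1% milk, 0.2 mg/ml BSA, 0.5% salmon testes DNA and 0.03% Triton X-100. Probes were primer-extended, 36 bp long and drawn from intergenic genomic regions, with negative controls included. After Alexa488 anti-GST antibody detection and a 488 nm scan, binding intensity was set as the highest Masliner-normalised natural-log median intensity across replicate spots of either probe orientation.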

| Sequence | gcPBM binding intensity (ln) |
| --- | --- |
| GACCCATTATTTTATTGTACTTTTATTATAACGTGA [XGTACX_site156] | 8.89 ± 0.35 |
| ATGTGTGTATACATCAATTATATATATATTATGTAT [GTGCAC_negctrl_site720] | 8.6 ± 0.33 |
| AAAATAAAAATAACAACACACATATACTATAATATT [CACACA_site2769] | 8.7 ± 0.46 |
| CATTTCATTTCTTAATGTACTTTATTCCACCACATA [XGTACX_site5943] | 8.76 ± 0.42 |
| TTTATTATTATATTATTTTAATTTTTCTTTAGTACA [GTGCAC_negctrl_site392] | 8.29 ± 0.32 |
| AAATTAAATAAATTTACACACTAAAAATTACATATA [CACACA_site1054] | 8.22 ± 0.34 |
| ATAAATATATGAAGTTGTACAAATAATTAACATTAT [XGTACX_site5740] | 8.73 ± 0.42 |
| TACCATGTTCAAATTACACACATATAATCTAATATA [CACACA_site2008] | 8.4 ± 0.43 |
| ATTTTTTTTAATTTGTACAAATTTTGTTCACAATTT [CACACA_negctrl_site1301] | 8.91 ± 0.57 |
| CGTAAACGATATAAATGTACGAATATCTATATATTA [XGTACX_site8116] | 8.37 ± 0.45 |
| TATATATTGCCCTTCACACACACACCGATATATATA [CACACA_site5390] | 9.11 ± 0.3 |
| ATATATATATATATTTGTACTTACATTTTTATTTAT [XGTACX_site4551] | 9.9 ± 0.47 |
| AAAAATATAACCGTTACACACAAAATAATATGAGAA [CACACA_site3773] | 8.72 ± 0.43 |
| TATTTCATCTTTTAAGAAGGTACCCATATGTCATAT [GTGCAC_negctrl_site403] | 8.63 ± 0.42 |
| ATAATAAGGTTAAGCACACATATTACATATATAACT [CACACA_site3356] | 8.48 ± 0.31 |
| GAACGATATATTATATGTACATATATATATATATAT [XGTACX_site394] | 10 ± 0.53 |
| TCGTTTCATAATATTGTGCACATATATATTTACAAT | 9.41 ± 0.23 |
| TGCCCTTTGGTTATAACACACATGCACCCGTAAATA [CACACA_site3842] | 9.16 ± 0.13 |
| TAATAAAAAGTTGAGGTGCATATAGAGTTCTTCTTT [GTGCAC_site9508] | 8.56 ± 0.12 |

| Sequence | gcPBM binding intensity (ln) |
| --- | --- |
| ATATTTTATATAATAGTGCAAATAATATTAAATAAT | 8.66 ± 0.21 |
| ATTATAATATTTAATTGTACTTGTATTTATTCCAAA [XGTACX_site6417] | 8.4 ± 0.38 |
| AAAAAAAATATATTACAAAACTTAGGATCCTAATAT [CACACA_negctrl_site470] | 8.48 ± 0.39 |
| AATAAATATATTAAAAGTACACAAATATTATTTAAT [XGTACX_site2482] | 8.57 ± 0.35 |
| AAGATTAAACATTGCACACAAAAACATATTTTCTAT [CACACA_site530] | 8.38 ± 0.31 |
| CACATAAAATAAGGTGCATGCAAACGAGAAAATAAA [TGCATGCA_site75] | 10.5 ± 0.11 |
| ATATATATATAATAATGTACTTATAATAGATGTGTA [XGTACX_site4677] | 9.44 ± 0.26 |
| AATATATAAGCTGTTCTATTCAAGAATTATATCTTA [CACACA_negctrl_site270] | 8.15 ± 0.5 |
| AGAAGATTAAACATTGCACACAAAAACATATTTTCT [CACACA_site8072] | 8.32 ± 0.4 |
| CAAAGGAAACCTATCTGTACACATATTGGGGGAAAA [XGTACX_site3502] | 9.31 ± 0.35 |
| GATTATTTCTAAAAAGTGCATATTTAAAAATCTCCT | 8.63 ± 0.057 |
| ATTGTTTTGTAATATGAAAAAATTGTGTAATGTGTC [CACACA_negctrl_site1510] | 8.73 ± 0.31 |
| TATTATATTATACATACACACCCATATAATATGTTT [CACACA_site8191] | 8.81 ± 0.33 |
| ATTTATATGAAAATATGTACTTATATAAATTTATTT [XGTACX_site53] | 8.35 ± 0.37 |
| AAATTCGTAATAATGTGTACATAACTATACATAATT [XGTACX_site1717] | 8.6 ± 0.33 |
| AAAAAATAGAATATGGGTACTAAAAAGATACAAACA [XGTACX_site4464] | 8.86 ± 0.49 |
| CGCAACGTGAAAATACGTACACATACATTTTTATAT [XGTACX_site330] | 8.39 ± 0.35 |
| AAATATTATGTACGCACACACATTTTTGATATATAA [CACACA_site7755] | 8.64 ± 0.28 |
| TATTCCTATATACAGCGTACAAAAAATAATATGTAT [XGTACX_site8112] | 8.69 ± 0.38 |

| Sequence | gcPBM binding intensity (ln) |
| --- | --- |
| TATGGAACACACCTTAATATGTGATAAAATATGATA [GTGCAC_negctrl_site718] | 8.55 ± 0.37 |
| GTTATTAAATAATTCACACACATATATATATATATA [CACACA_site2260] | 10.3 ± 0.45 |
| TTAATACATACATTCACACACACTAAATGTATATTT [CACACA_site4105] | 8.55 ± 0.42 |
| GGGGGAAGGTTGAAGGTGCTTGATGGAGAAAAATAT | 9.81 ± 0.35 |
| TAATCGTTTTATAAATGTACAAAATTGTTATGTTAT [XGTACX_site5147] | 8.39 ± 0.4 |
| AATAGGATATGGTACATTTTTTGTATACTTTTTGTT [CACACA_negctrl_site1804] | 8.26 ± 0.43 |
| ATAAATTCTATGTATACACACATATATAATATATAT [CACACA_site2689] | 8.73 ± 0.57 |
| AAACAAGTAATTGTTATTATTATTATATTATTATTA [CACACA_negctrl_site402] | 7.86 ± 0.33 |
| TCTTATATAACGAAAGTAAAATAATATGCTAAGCAT [CACACA_negctrl_site668] | 8.35 ± 0.43 |
| CTAAAAAGAGAAGTGTGTCCTCAAATTAATATAATT [XGTACX_site1057] | 8.34 ± 0.83 |
| TTTTTTTTTTTTGAAGTGCATGTTACGATGAACAAA [GTGCAC_site9451] | 8.53 ± 0.28 |
| GAAAAAAAAAAAAATACACACAAATTGGTATAGAAT [CACACA_site380] | 8.53 ± 0.47 |
| TATATAAAAATATACACACACAAATGTATTTATATA [CACACA_site4284] | 8.02 ± 0.35 |
| AATGAATATTAAAGGAGTACACATAATAAGTAAGAA [XGTACX_site7354] | 9.21 ± 0.4 |
| AAAATAGAGTTGAATGCACACATACAAATTTTTAGG [CACACA_site9188] | 8.46 ± 0.26 |
| TTATTAAATTCTTTATTTAGCATATACAATAAAAGA [CACACA_negctrl_site1420] | 8 ± 0.44 |
| ATAAATAATTTATTCACACATACAAAAGTTTACAAA [CACACA_site5666] | 8.47 ± 0.47 |
| TATTTTATTTCAAATCTTAATAATTGTAATTCTTCA [XGTACX_negctrl_site442] | 8.1 ± 0.63 |
| TGTGTAATACATAATACACACATGTATATGTCGCAT [CACACA_site4757] | 8.49 ± 0.49 |
